Assay results reported in the supplement of paper PMC10724272.
MIC of invasive clinical C. tropicalis isolates, CLSI broth microdilution (fluconazole 0.12-256 mg/L, up to 1,024 for the azole-resistant cluster and its neighbour group; other ranges not stated); higher = less susceptible. Call: susceptible or wild type [S] / resistant or non-wild type [R] by CLSI breakpoints or cut-offs; intermediate and dose-dependent carry no call. '<=' and '>=' at the end values are inferred; the source marks only some of them. Isolates are numbered anew.

compound: CC[C@@H]([C@H](C)O)n1ncn(-c2ccc(N3CCN(c4ccc(OC[C@@H]5CO[C@@](Cn6cncn6)(c6ccc(F)cc6F)C5)cc4)CC3)cc2)c1=O [posaconazole]; assay: CLSI broth microdilution.

| Test System | MIC |
| --- | --- |
| Candida tropicalis isolate 321 (ERG11 copies: 2, Erg11p: no key change) | 0.25 mg/L [S] |
| Candida tropicalis isolate 412 (ERG11 copies: 2, Erg11p: no key change) | 0.03 mg/L [S] |
| Candida tropicalis isolate 182 (ERG11 copies: 2, Erg11p: no key change) | 0.12 mg/L [S] |
| Candida tropicalis isolate 89 (ERG11 copies: 2, Erg11p: no key change) | 0.25 mg/L [S] |
| Candida tropicalis isolate 201 (ERG11 copies: 2, Erg11p: Y132F, S154F (heterozygous)) | 0.5 mg/L [R] |
| Candida tropicalis isolate 169 (ERG11 copies: 2, Erg11p: no key change) | 0.5 mg/L [R] |
| Candida tropicalis isolate 398 (ERG11 copies: 2, Erg11p: Y132F, S154F (heterozygous)) | 0.12 mg/L [S] |
| Candida tropicalis isolate 14 (ERG11 copies: 2, Erg11p: no key change) | 0.06 mg/L [S] |
| Candida tropicalis isolate 64 (ERG11 copies: 2, Erg11p: no key change) | 0.06 mg/L [S] |
| Candida tropicalis isolate 245 (ERG11 copies: 2, Erg11p: no key change) | 0.03 mg/L [S] |
| Candida tropicalis isolate 435 (ERG11 copies: 2, Erg11p: no key change) | 0.12 mg/L [S] |
| Candida tropicalis isolate 4 (ERG11 copies: 2, Erg11p: no key change) | 0.12 mg/L [S] |
| Candida tropicalis isolate 415 (ERG11 copies: 2, Erg11p: no key change) | 0.5 mg/L [R] |
| Candida tropicalis isolate 32 (ERG11 copies: 6, Erg11p: Y132F, S154F (heterozygous)) | 0.5 mg/L [R] |
| Candida tropicalis isolate 295 (ERG11 copies: 2, Erg11p: no key change) | 0.25 mg/L [S] |
| Candida tropicalis isolate 88 (ERG11 copies: 2, Erg11p: no key change) | 0.25 mg/L [S] |
| Candida tropicalis isolate 90 (ERG11 copies: 2, Erg11p: no key change) | 0.06 mg/L [S] |
| Candida tropicalis isolate 36 (ERG11 copies: 2, Erg11p: no key change) | 0.25 mg/L [S] |

compound: Nc1[nH]c(=O)ncc1F [flucytosine]; assay: CLSI broth microdilution.

| Test System | MIC |
| --- | --- |
| Candida tropicalis isolate 297 (ERG11 copies: 2, Erg11p: no key change) | ≤ 0.06 mg/L [S] |
| Candida tropicalis isolate 10 (ERG11 copies: 2, Erg11p: no key change) | 0.12 mg/L [S] |
| Candida tropicalis isolate 368 (ERG11 copies: 8, Erg11p: Y132F, S154F (heterozygous)) | ≤ 0.06 mg/L [S] |
| Candida tropicalis isolate 104 (ERG11 copies: 2, Erg11p: no key change) | ≤ 0.06 mg/L [S] |
| Candida tropicalis isolate 38 (ERG11 copies: 2, Erg11p: no key change) | ≤ 0.06 mg/L [S] |
| Candida tropicalis isolate 437 (ERG11 copies: 2, Erg11p: no key change) | ≤ 0.06 mg/L [S] |
| Candida tropicalis isolate 6 (ERG11 copies: 2, Erg11p: no key change) | ≤ 0.06 mg/L [S] |
| Candida tropicalis isolate 328 (ERG11 copies: 2, Erg11p: Y132F, S154F (homozygous)) | ≤ 0.06 mg/L [S] |
| Candida tropicalis isolate 92 (ERG11 copies: 2, Erg11p: no key change) | ≤ 0.06 mg/L [S] |
| Candida tropicalis isolate 115 (ERG11 copies: 2, Erg11p: no key change) | ≤ 0.06 mg/L [S] |
| Candida tropicalis isolate 141 (ERG11 copies: 2, Erg11p: no key change) | ≤ 0.06 mg/L [S] |
| Candida tropicalis isolate 2 (ERG11 copies: 6, Erg11p: Y132F, S154F (homozygous)) | ≤ 0.06 mg/L [S] |
| Candida tropicalis isolate 155 (ERG11 copies: 2, Erg11p: no key change) | ≤ 0.06 mg/L [S] |
| Candida tropicalis isolate 279 (ERG11 copies: 8, Erg11p: Y132F, S154F (heterozygous)) | ≤ 0.06 mg/L [S] |
| Candida tropicalis isolate 252 (ERG11 copies: 2, Erg11p: no key change) | ≤ 0.06 mg/L [S] |
| Candida tropicalis isolate 349 (ERG11 copies: 7, Erg11p: Y132F, S154F (heterozygous)) | ≤ 0.06 mg/L [S] |
| Candida tropicalis isolate 146 (ERG11 copies: 2, Erg11p: no key change) | ≤ 0.06 mg/L [S] |
| Candida tropicalis isolate 257 (ERG11 copies: 2, Erg11p: no key change) | ≤ 0.06 mg/L [S] |
| Candida tropicalis isolate 321 (ERG11 copies: 2, Erg11p: no key change) | ≤ 0.06 mg/L [S] |
| Candida tropicalis isolate 412 (ERG11 copies: 2, Erg11p: no key change) | 0.12 mg/L [S] |
| Candida tropicalis isolate 182 (ERG11 copies: 2, Erg11p: no key change) | 0.12 mg/L [S] |
| Candida tropicalis isolate 89 (ERG11 copies: 2, Erg11p: no key change) | ≤ 0.06 mg/L [S] |
